Reference: PubChem BioAssay AID1347165 (National Center for Advancing Translational Sciences (NCATS), 2019)
The whole screen tested about 220,000 compounds, of which about 5,700 (2.6%) were called active. This list was built around the results that the source calls inconclusive (neither active nor inactive); the mix of calls is not that of the screen. Calls come from the whole dose curve; as a rule, active = well fitted inhibition curve with a large enough effect; inconclusive = small, poorly fitted or top-dose-only effect; inactive = no such curve, though single readings can be large or run the other way. Where the call is inconclusive, the potency comes from a doubtful curve fit.

target: Lysine-specific demethylase 5B (Homo sapiens) (UniProt Q9UGL1); assay: Primary screen for KDM5B Histone Demethylases FDH-coupled qHTS; settings: FDH-coupled NADH fluorescence (FDH is formaldehyde dehydrogenase); activity change, negative = inhibition: at 57.7 µM (top of the series) unless noted; note: nearly all actives have a fitted effect of over 70% in size; for activity change, negative = inhibition: 0% is about no effect
Chain of UniProt Q9UGL1 (Q9UGL1 whole entry, looked up): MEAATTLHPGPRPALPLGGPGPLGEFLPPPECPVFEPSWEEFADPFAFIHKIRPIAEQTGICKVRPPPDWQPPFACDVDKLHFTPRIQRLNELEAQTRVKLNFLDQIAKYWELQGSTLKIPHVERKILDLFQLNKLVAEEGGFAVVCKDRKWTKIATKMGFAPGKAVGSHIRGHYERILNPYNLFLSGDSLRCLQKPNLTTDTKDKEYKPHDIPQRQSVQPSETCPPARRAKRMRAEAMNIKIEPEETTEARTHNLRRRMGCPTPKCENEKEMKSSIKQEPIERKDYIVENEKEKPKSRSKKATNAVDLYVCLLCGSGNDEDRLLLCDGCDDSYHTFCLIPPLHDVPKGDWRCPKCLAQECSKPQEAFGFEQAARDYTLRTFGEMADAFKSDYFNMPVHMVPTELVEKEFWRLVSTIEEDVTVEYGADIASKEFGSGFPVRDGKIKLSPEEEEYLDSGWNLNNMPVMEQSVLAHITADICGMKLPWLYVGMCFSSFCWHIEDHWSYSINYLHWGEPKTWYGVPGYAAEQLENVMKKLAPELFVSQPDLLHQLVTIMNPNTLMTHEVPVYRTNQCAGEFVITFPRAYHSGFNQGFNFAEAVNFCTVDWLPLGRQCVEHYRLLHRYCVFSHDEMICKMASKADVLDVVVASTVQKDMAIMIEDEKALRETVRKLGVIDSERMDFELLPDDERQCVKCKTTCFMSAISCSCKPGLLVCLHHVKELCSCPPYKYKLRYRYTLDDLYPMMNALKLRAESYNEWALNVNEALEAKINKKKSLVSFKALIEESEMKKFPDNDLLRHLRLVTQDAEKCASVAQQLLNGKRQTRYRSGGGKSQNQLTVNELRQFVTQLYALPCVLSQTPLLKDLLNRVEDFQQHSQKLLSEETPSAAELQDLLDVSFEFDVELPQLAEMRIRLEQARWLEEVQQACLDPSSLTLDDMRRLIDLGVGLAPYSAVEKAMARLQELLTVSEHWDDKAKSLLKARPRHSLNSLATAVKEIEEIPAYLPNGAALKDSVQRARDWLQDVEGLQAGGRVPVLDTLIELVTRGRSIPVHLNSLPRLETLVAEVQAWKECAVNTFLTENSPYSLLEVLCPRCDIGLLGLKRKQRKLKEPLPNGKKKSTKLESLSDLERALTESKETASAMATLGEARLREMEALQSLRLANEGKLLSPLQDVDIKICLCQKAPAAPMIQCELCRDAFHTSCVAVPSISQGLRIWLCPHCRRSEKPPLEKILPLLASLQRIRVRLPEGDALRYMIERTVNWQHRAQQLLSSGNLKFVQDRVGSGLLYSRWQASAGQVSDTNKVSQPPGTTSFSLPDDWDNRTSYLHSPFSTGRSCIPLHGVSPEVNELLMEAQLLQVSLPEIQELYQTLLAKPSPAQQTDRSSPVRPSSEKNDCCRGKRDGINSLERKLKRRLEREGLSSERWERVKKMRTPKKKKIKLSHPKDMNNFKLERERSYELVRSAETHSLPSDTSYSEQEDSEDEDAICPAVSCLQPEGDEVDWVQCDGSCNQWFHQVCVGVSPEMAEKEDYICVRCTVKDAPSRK
In short: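 KDM5BΔAP (200 nM final) in 50 mM HEPES pH 7.5, 0.01% Tween-20 was preincubated 10 min at RT with compound over a concentration range. Substrate mix (H3K4me3 12.5 µM, α-KG 25 µM, Fe²⁺, ascorbate, NAD⁺, FDH) was added, and NADH fluorescence change over 30 min gave dose-response curves.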
Potency is the fitted concentration of half-maximal effect; tags give direction and shape of the fitted curve.

Row | Compound | Potency | activity change, negative = inhibition
1 | CNc1ccnc(N2CCCC(CO)(Cc3ccc(F)cc3)C2)n1 (stereo unspecified) | inconclusive: 31.6 µM [inhibitor, partial curve, poor fit] | 
2 | Fc1ccc(-c2noc([C@@H]3Cc4nc[nH]c4CN3CCCc3ccccc3)n2)cc1Cl | inconclusive: 31.6 µM [inhibitor, single point] | 
3 | CS(=O)(=O)c1ccc(CN2C[C@@H](F)[C@@H](OCc3nc4ccccc4[nH]3)C2)cc1 | inconclusive: 39.8 µM [inhibitor, single point] | 
4 | Cc1nc2ccc(Cl)cn2c1C(=O)N1CCC2(CCCN(C)C2=O)C1 (stereo unspecified) | inconclusive: 14.1 µM [inhibitor, partial curve] | 
5 | COC(=O)c1ccc(Oc2c(C)oc3cc(OC(=O)c4ccccc4F)ccc3c2=O)cc1 | inconclusive: 11.2 µM [inhibitor, partial curve, poor fit] | 
6 | Cc1ncoc1C(=O)N1CCc2nnc([C@@H]3C[C@@H](O)CN3C(C)C)n2CC1 | inconclusive: 28.2 µM [inhibitor, partial curve, poor fit] | 
7 | CCc1ccc(S(=O)(=O)N(C)CC2CCOC2)cc1 (stereo unspecified) |  | inactive: 28.5%
8 | CCOC(=O)c1ccc(NC(=O)N2CCC3(CC2)SCC(=O)N3Cc2ccco2)cc1 | inconclusive: 25.1 µM [inhibitor, partial curve, poor fit] | 
9 | O=S(=O)(Cc1ccccc1)N[C@H]1CO[C@H]2[C@@H]1OC[C@@H]2Nc1nccc(-c2cccc(F)c2)n1 | inconclusive: 3.55 µM [inhibitor, partial curve, poor fit] | 
10 | Cc1c(C)c2ccc(OCC(=O)NC3CC(C)(C)NC(C)(C)C3)c(C)c2oc1=O | inconclusive: 11.2 µM [inhibitor, partial curve, poor fit] | 
11 | Cc1ccc(NC(=O)Cn2cc(S(=O)(=O)Cc3ccc(F)cc3)c3ccccc32)cc1Cl | inconclusive: 35.5 µM [inhibitor, single point] | 
12 | COc1ccc(C(=O)Nc2ccc(Br)cc2C)cc1Cl |  | inactive: 2.82%
13 | COCCNC(=O)C1COC2(CCC(C)CC2)N1C(=O)c1cccc([N+](=O)[O-])c1 (stereo unspecified) | inconclusive: 35.5 µM [inhibitor, single point] | 
14 | COc1ccc(-c2cc(C(F)(F)F)nc(SCC(=O)NCCc3ccccc3)n2)cc1 | inconclusive: 2.24 µM [inhibitor, full curve, poor fit] | 
15 | COc1ccc(CNC(=O)Cc2nc(-c3cccs3)oc2C)cc1 | inconclusive: 20 µM [inhibitor, partial curve, poor fit] | 
16 | Cc1cc(C)c2c(CC(=O)N(Cc3ccc(Cl)cc3)Cc3ccco3)coc2c1 | inconclusive: 15.8 µM [inhibitor, partial curve, poor fit] | 
17 | O=C(Nc1ccccc1)c1nc[nH]c1C(=O)O | inconclusive: 35.5 µM [inhibitor, single point] | 
18 | Cn1nccc1CN1CCC2(C1)C(=O)N(CCc1ccccc1)c1ccccc12 (stereo unspecified) | inactive | 
19 | CN(C)c1cccc(C(=O)NNC(=O)c2ccc(CSc3ccc(Cl)cc3)cc2)c1 |  | inactive: -26.2%
20 | CCn1cc(S(=O)(=O)N2CC(COC)C3(CCNCC3)C2)cn1 (stereo unspecified) | inconclusive: 35.5 µM [inhibitor, partial curve, poor fit] | 
21 | Cc1cc(-n2ccnc(NCCc3ccc(S(N)(=O)=O)cc3)c2=O)ccc1Br | inconclusive: 5.01 µM [inhibitor, partial curve, poor fit] | 

Row | Compound | Potency | activity change, negative = inhibition
22 | COc1ccc(-c2onc(C)c2C)cc1S(=O)(=O)N(C)Cc1ccccc1 | inconclusive: 15.8 µM [inhibitor, partial curve, poor fit] | 
23 | CCOc1ccc(N2C(=O)CCC2(C)C(=O)NC2CCCC2)cc1 (stereo unspecified) | inconclusive: 39.8 µM [inhibitor, single point] | 
24 | Cc1oc(-c2cccs2)nc1CC(=O)NCC(F)(F)F | inconclusive: 22.4 µM [inhibitor, partial curve, poor fit] | 
25 | c1cncc(-c2ccnc3nc(C4CCC4)nn23)c1 | inconclusive: 35.5 µM [inhibitor, partial curve] | 
26 | O=C(NCc1cccs1)c1cc(C2CC2)nc2onc(C3CCNCC3)c12 |  | inactive: -0.214% [at 115 µM]
27 | S=c1[nH]c(-c2ccc(Cl)cc2Cl)cs1 |  | inactive: -18%
28 | CC1(C)CN(C(=O)C2CCCO2)CCO1 (stereo unspecified) |  | inactive: 21.8%
29 | COC[C@@H]1[C@H](C(=O)Nc2ccc(OC)nc2)CCC(=O)N1C | inconclusive: 10 µM [inhibitor, partial curve, poor fit] | 
30 | COc1cccc(N2CC(C(=O)Nc3ccc(F)cc3)CC2=O)c1 (stereo unspecified) | inconclusive: 39.8 µM [inhibitor, single point] | 
31 | Cc1ccc2c(CN3CCN(C)CC3)cc(=O)oc2c1C |  | inactive: 4.77%
32 | O=S(=O)(c1ccc2c(c1)OCCO2)c1nc(-c2ccco2)oc1N1CCN(c2ccccc2)CC1 | inconclusive: 39.8 µM [inhibitor, single point] | 
33 | COc1ccc(Nc2nc(C)nc(N)c2S(=O)(=O)c2ccccc2)cc1 | inconclusive: 15.8 µM [inhibitor, partial curve, poor fit] | 
34 | O=C(NCC1CC1)c1cc(C2CC2)nc2onc(C3CCCNC3)c12 (stereo unspecified) | active: 89.1 µM | 
35 | COc1cccc(-c2cc3c(=O)n(CCNC(=O)C4CCN(C(C)=O)CC4)ccn3n2)c1 | active: 20 µM | 
36 | Cc1cc(C(=O)N2CCCC(c3nnc(Cn4ccnc4)n3C)C2)c(C)o1 (stereo unspecified) | inconclusive: 7.94 µM [inhibitor, partial curve, poor fit] | 
37 | COC(=O)c1scc(-c2ccc(C)cc2)c1S(=O)(=O)Nc1cc(C)ccc1OC | inconclusive: 28.2 µM [inhibitor, single point] | 
38 | Cc1nnc(NC(=O)c2csc(NCC(C)C)n2)s1 | inconclusive: 22.4 µM [inhibitor, partial curve, poor fit] | 
39 | CSc1ccc(CNC(=O)c2cc3c(N4CCSCC4)nc(C)cn3n2)cc1 | inconclusive: 17.8 µM [inhibitor, partial curve, poor fit] | 
40 | CCc1nn2c(=O)cc(CNc3cc4c(cc3Cl)OCCCO4)nc2s1 |  | inactive: 8.46%
41 | CCOC(=O)Cn1c(=O)n(C2CCCCC2)c2nc(-c3c(F)cccc3Cl)nc(C(N)=O)c21 | inconclusive: 3.55 µM [inhibitor, partial curve, poor fit] | 
